Single values are uncertain, as repeats are few or missing.
Legend:
CHO-K1 [1] = experiment: relative survival (nuclei to bead ratio vs DMSO control) (% of vehicle control); higher = more surviving cells
CHO-K1 [2] = experiment: micronucleus frequency (% of nucleated events); higher = more micronuclei (genotoxic)
CHO-K1 [3] = experiment: hypodiploid nuclei frequency (% of nucleated events); higher = more hypodiploid events (aneugenic)
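Throughout, for hypodiploid nuclei frequency (% of nucleated events): hypodiploid nuclei gated on a flow cytometer with 488 nm excitation after SYTOX Green staining, cultures at 37 °C, positive controls vinblastine without S9 and cyclophosphamide with S9.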
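Throughout, for micronucleus frequency (% of nucleated events): cells lysed with nuclei stained by SYTOX Green, then micronucleus-gated events counted against nucleated events by flow cytometry with 488 nm excitation.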
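Throughout, for relative survival (nuclei to bead ratio vs DMSO control): Lysed-cell nuclei stained with SYTOX Green and counted against counting beads by flow cytometry at 488 nm excitation, with vinblastine (no S9) and cyclophosphamide (plus S9) as positive controls.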

C/C=C/C=C/C(=O)O [Sorbic acid]
Conditions	hypodiploid nuclei frequency, CHO-K1 [3] [%]	micronucleus frequency, CHO-K1 [2] [%]	relative survival, CHO-K1 [1]
concentration: 4.53 (µM), S9 metabolic activation: with S9, exposure time: 3-4 hours	0.28	1	94
concentration: 4.53 (µM), S9 metabolic activation: without S9, exposure time: 24 hours	0.66	1.32	132
concentration: 5.66 (µM), S9 metabolic activation: with S9, exposure time: 3-4 hours	0.22	0.62	84.2
concentration: 5.66 (µM), S9 metabolic activation: without S9, exposure time: 24 hours	0.62	1.18	135
concentration: 7.07 (µM), S9 metabolic activation: with S9, exposure time: 3-4 hours	0.2	1.46	84.5
concentration: 7.07 (µM), S9 metabolic activation: without S9, exposure time: 24 hours	0.56	1.4	130
concentration: 8.84 (µM), S9 metabolic activation: with S9, exposure time: 3-4 hours	0.24	1.5	93.2
concentration: 8.84 (µM), S9 metabolic activation: without S9, exposure time: 24 hours	0.46	1.28	119
concentration: 11.1 (µM), S9 metabolic activation: with S9, exposure time: 3-4 hours	0.3	1.28	87.8
concentration: 11.1 (µM), S9 metabolic activation: without S9, exposure time: 24 hours	0.96	1.8	136
concentration: 13.8 (µM), S9 metabolic activation: with S9, exposure time: 3-4 hours	0.36	2.02	82.6
concentration: 13.8 (µM), S9 metabolic activation: without S9, exposure time: 24 hours	0.88	1.8	137
concentration: 17.3 (µM), S9 metabolic activation: with S9, exposure time: 3-4 hours	0.26	1.48	110
concentration: 17.3 (µM), S9 metabolic activation: without S9, exposure time: 24 hours	0.72	1.7	119
concentration: 21.6 (µM), S9 metabolic activation: with S9, exposure time: 3-4 hours	0.28	1.74	109
concentration: 21.6 (µM), S9 metabolic activation: without S9, exposure time: 24 hours	0.48	1.36	141
concentration: 27 (µM), S9 metabolic activation: with S9, exposure time: 3-4 hours	0.16	1.26	108
concentration: 27 (µM), S9 metabolic activation: without S9, exposure time: 24 hours	0.48	1.6	118
concentration: 33.7 (µM), S9 metabolic activation: with S9, exposure time: 3-4 hours	0.14	0.96	120
concentration: 33.7 (µM), S9 metabolic activation: without S9, exposure time: 24 hours	0.58	1.84	107
concentration: 42.2 (µM), S9 metabolic activation: with S9, exposure time: 3-4 hours	0.19	0.86	90.5
concentration: 42.2 (µM), S9 metabolic activation: without S9, exposure time: 24 hours	1.3	2.82	115
concentration: 52.7 (µM), S9 metabolic activation: with S9, exposure time: 3-4 hours	0.16	1.14	79.7
concentration: 52.7 (µM), S9 metabolic activation: without S9, exposure time: 24 hours	1.2	3.24	128
concentration: 65.9 (µM), S9 metabolic activation: with S9, exposure time: 3-4 hours	0.21	1.32	58
concentration: 65.9 (µM), S9 metabolic activation: without S9, exposure time: 24 hours	3.64	7.1	80.1
concentration: 82.3 (µM), S9 metabolic activation: with S9, exposure time: 3-4 hours	0.22	1.64	87.8
concentration: 82.3 (µM), S9 metabolic activation: without S9, exposure time: 24 hours	6.98	12.3	55.6
concentration: 103 (µM), S9 metabolic activation: with S9, exposure time: 3-4 hours	0.22	1.46	77.8
concentration: 103 (µM), S9 metabolic activation: without S9, exposure time: 24 hours	9.22	18.4	41.4
concentration: 129 (µM), S9 metabolic activation: with S9, exposure time: 3-4 hours	0.25	2.35	64.7
concentration: 129 (µM), S9 metabolic activation: without S9, exposure time: 24 hours	–	–	34.1
concentration: 161 (µM), S9 metabolic activation: with S9, exposure time: 3-4 hours	0.36	2.32	72.3
concentration: 161 (µM), S9 metabolic activation: without S9, exposure time: 24 hours	3.34	3.6	43.1
concentration: 201 (µM), S9 metabolic activation: with S9, exposure time: 3-4 hours	–	–	37.6
concentration: 201 (µM), S9 metabolic activation: without S9, exposure time: 24 hours	2.11	3.14	40.2

COC(=O)NC(=S)Nc1ccccc1NC(=S)NC(=O)OC [Thiophanate-methyl]
Conditions	hypodiploid nuclei frequency, CHO-K1 [3] [%]	micronucleus frequency, CHO-K1 [2] [%]	relative survival, CHO-K1 [1]
concentration: 4.5 (µM), S9 metabolic activation: with S9, exposure time: 3-4 hours	0.32	1.82	86.7
concentration: 4.5 (µM), S9 metabolic activation: without S9, exposure time: 24 hours	0.54	1.32	97.7
concentration: 5.63 (µM), S9 metabolic activation: with S9, exposure time: 3-4 hours	0.26	2.43	91.5
concentration: 5.63 (µM), S9 metabolic activation: without S9, exposure time: 24 hours	0.84	1.5	111
concentration: 7.04 (µM), S9 metabolic activation: with S9, exposure time: 3-4 hours	0.36	1.64	76.1
concentration: 7.04 (µM), S9 metabolic activation: without S9, exposure time: 24 hours	0.73	1.9	98.6
concentration: 8.8 (µM), S9 metabolic activation: with S9, exposure time: 3-4 hours	0.26	1.66	82.1
concentration: 8.8 (µM), S9 metabolic activation: without S9, exposure time: 24 hours	1.05	1.78	105
concentration: 11 (µM), S9 metabolic activation: with S9, exposure time: 3-4 hours	0.28	1.98	86.6
concentration: 11 (µM), S9 metabolic activation: without S9, exposure time: 24 hours	0.94	1.72	104
concentration: 13.7 (µM), S9 metabolic activation: with S9, exposure time: 3-4 hours	0.3	2.01	95.1
concentration: 13.7 (µM), S9 metabolic activation: without S9, exposure time: 24 hours	1	1.64	99.1
concentration: 17.2 (µM), S9 metabolic activation: with S9, exposure time: 3-4 hours	0.17	1.77	92
concentration: 17.2 (µM), S9 metabolic activation: without S9, exposure time: 24 hours	0.94	2.57	91.1
concentration: 21.5 (µM), S9 metabolic activation: with S9, exposure time: 3-4 hours	0.2	1.56	99.9
concentration: 21.5 (µM), S9 metabolic activation: without S9, exposure time: 24 hours	1.15	2.04	87.3
concentration: 26.8 (µM), S9 metabolic activation: with S9, exposure time: 3-4 hours	0.29	1.07	87
concentration: 26.8 (µM), S9 metabolic activation: without S9, exposure time: 24 hours	1.78	3.08	95.3
concentration: 33.6 (µM), S9 metabolic activation: with S9, exposure time: 3-4 hours	0.18	1.17	91.2
concentration: 33.6 (µM), S9 metabolic activation: without S9, exposure time: 24 hours	2.52	4.3	97.2
concentration: 41.9 (µM), S9 metabolic activation: with S9, exposure time: 3-4 hours	0.28	1.51	76.7
concentration: 41.9 (µM), S9 metabolic activation: without S9, exposure time: 24 hours	4.17	6.07	76.9
concentration: 52.4 (µM), S9 metabolic activation: with S9, exposure time: 3-4 hours	0.28	1.64	92.9
concentration: 52.4 (µM), S9 metabolic activation: without S9, exposure time: 24 hours	6.62	9.82	78.6
concentration: 65.5 (µM), S9 metabolic activation: with S9, exposure time: 3-4 hours	0.26	1.36	93.9
concentration: 65.5 (µM), S9 metabolic activation: without S9, exposure time: 24 hours	10.1	14.7	77.3
concentration: 81.9 (µM), S9 metabolic activation: with S9, exposure time: 3-4 hours	0.25	1.4	90.9
concentration: 81.9 (µM), S9 metabolic activation: without S9, exposure time: 24 hours	14.6	20	71.5
concentration: 102 (µM), S9 metabolic activation: with S9, exposure time: 3-4 hours	0.2	1.54	91
concentration: 102 (µM), S9 metabolic activation: without S9, exposure time: 24 hours	17.7	23.3	72.3
concentration: 128 (µM), S9 metabolic activation: with S9, exposure time: 3-4 hours	0.27	1.81	89.3
concentration: 128 (µM), S9 metabolic activation: without S9, exposure time: 24 hours	19.6	29	69.2
concentration: 160 (µM), S9 metabolic activation: with S9, exposure time: 3-4 hours	0.17	1.74	96.4
concentration: 160 (µM), S9 metabolic activation: without S9, exposure time: 24 hours	20.5	32.7	56.2
concentration: 200 (µM), S9 metabolic activation: with S9, exposure time: 3-4 hours	0.31	1.51	89.7
concentration: 200 (µM), S9 metabolic activation: without S9, exposure time: 24 hours	18.13	37.7	47.8

Cc1ccc(C(C)C)c(O)c1 [Thymol]
Conditions	hypodiploid nuclei frequency, CHO-K1 [3] [%]	micronucleus frequency, CHO-K1 [2] [%]	relative survival, CHO-K1 [1]
concentration: 4.5 (µM), S9 metabolic activation: with S9, exposure time: 3-4 hours	0.2	0.86	118
concentration: 4.5 (µM), S9 metabolic activation: without S9, exposure time: 24 hours	0.4	1.14	125
concentration: 5.63 (µM), S9 metabolic activation: with S9, exposure time: 3-4 hours	0.2	0.8	106
concentration: 5.63 (µM), S9 metabolic activation: without S9, exposure time: 24 hours	0.5	1.3	124
concentration: 7.04 (µM), S9 metabolic activation: with S9, exposure time: 3-4 hours	0.06	0.96	128
concentration: 7.04 (µM), S9 metabolic activation: without S9, exposure time: 24 hours	0.6	1.12	112
concentration: 8.8 (µM), S9 metabolic activation: with S9, exposure time: 3-4 hours	0.18	1	120
concentration: 8.8 (µM), S9 metabolic activation: without S9, exposure time: 24 hours	0.46	1.06	106
concentration: 11 (µM), S9 metabolic activation: with S9, exposure time: 3-4 hours	0.12	1.04	148
concentration: 11 (µM), S9 metabolic activation: without S9, exposure time: 24 hours	0.74	1.54	121
concentration: 13.7 (µM), S9 metabolic activation: with S9, exposure time: 3-4 hours	0.24	0.84	128
concentration: 13.7 (µM), S9 metabolic activation: without S9, exposure time: 24 hours	0.5	1.16	150
concentration: 17.2 (µM), S9 metabolic activation: with S9, exposure time: 3-4 hours	0.16	1.08	142
concentration: 17.2 (µM), S9 metabolic activation: without S9, exposure time: 24 hours	0.54	1.26	116
concentration: 21.5 (µM), S9 metabolic activation: with S9, exposure time: 3-4 hours	0.2	1.12	145
concentration: 21.5 (µM), S9 metabolic activation: without S9, exposure time: 24 hours	0.64	1.1	133
concentration: 26.8 (µM), S9 metabolic activation: with S9, exposure time: 3-4 hours	0.18	0.76	95
concentration: 26.8 (µM), S9 metabolic activation: without S9, exposure time: 24 hours	0.42	1.42	90.2
concentration: 33.6 (µM), S9 metabolic activation: with S9, exposure time: 3-4 hours	0.14	0.64	106
concentration: 33.6 (µM), S9 metabolic activation: without S9, exposure time: 24 hours	0.3	1.2	107
concentration: 41.9 (µM), S9 metabolic activation: with S9, exposure time: 3-4 hours	0.16	1	105
concentration: 41.9 (µM), S9 metabolic activation: without S9, exposure time: 24 hours	0.58	1.3	130
concentration: 52.4 (µM), S9 metabolic activation: with S9, exposure time: 3-4 hours	0.2	0.84	111
concentration: 52.4 (µM), S9 metabolic activation: without S9, exposure time: 24 hours	0.72	1.42	97.5
concentration: 65.5 (µM), S9 metabolic activation: with S9, exposure time: 3-4 hours	0.12	0.92	110
concentration: 65.5 (µM), S9 metabolic activation: without S9, exposure time: 24 hours	0.52	1.54	92
concentration: 81.9 (µM), S9 metabolic activation: with S9, exposure time: 3-4 hours	0.14	0.86	95.9
concentration: 81.9 (µM), S9 metabolic activation: without S9, exposure time: 24 hours	0.68	1.5	103
concentration: 102 (µM), S9 metabolic activation: with S9, exposure time: 3-4 hours	0.16	0.88	114
concentration: 102 (µM), S9 metabolic activation: without S9, exposure time: 24 hours	0.9	1.64	109
concentration: 128 (µM), S9 metabolic activation: with S9, exposure time: 3-4 hours	0.12	1.2	127
concentration: 128 (µM), S9 metabolic activation: without S9, exposure time: 24 hours	0.94	1.56	103
concentration: 160 (µM), S9 metabolic activation: with S9, exposure time: 3-4 hours	0.14	0.86	111
concentration: 160 (µM), S9 metabolic activation: without S9, exposure time: 24 hours	1.08	1.94	106
concentration: 200 (µM), S9 metabolic activation: with S9, exposure time: 3-4 hours	0.28	1.4	123
concentration: 200 (µM), S9 metabolic activation: without S9, exposure time: 24 hours	1.38	1.78	91.1
